Structures are written as SMILES. The full ranking holds about 5,400 compounds; the median of “IFI” is about 2, and the highest 2% start at about 22. The list shows a part of the results.

The assay can be described thus: NOVARTIS: Inhibition Frequency Index (IFI) - the number of HTS assays where a compound showed > 50% inhibition/induction, expressed as a percentage of the number of assays in which the compound was tested. The assay is classed as functional.
In turn, `C=C[C@H]1CN2CC[C@H]1C[C@@H]2[C@@H](OC(=O)c1ccco1)c1ccnc2ccccc12` had an IFI of 1.65%.

Compound `C=C[C@H]1CN2CC[C@H]1C[C@H]2[C@H](OC(=O)CCC)c1ccnc2ccccc12` showed an IFI of 0.917%.

The compound `Cc1ccc(-n2c(C)c(C(=O)c3ccccc3)c3cc(O)ccc32)cc1` registered an IFI of 0%.

`C=CC1CN2CCC1CC2[C@H](c1ccnc2ccccc12)S(=O)(=O)O` (stereo partly specified) displayed an IFI of 0%.

In the case of `CC(Cc1ccccc1)NCc1ccccc1O` (stereo unspecified), the IFI came out at 3.12%.

`O=C1CN=C(c2ccccc2)c2cc(Cl)ccc2N1Cc1cc(=O)n2ccccc2n1` returned an IFI of 0%.

The compound `N#Cc1cc(N2CC3CC(C2)c2cccc(=O)n2C3)c([N+](=O)[O-])cc1C#N` (stereo unspecified) showed an IFI of 0%.

`O=C(NNc1cccc(F)n1)C(F)(F)F` returned an IFI of 1.25%.

For `C=C[C@H]1CN2CC[C@H]1C[C@H]2[C@H](OC(=O)CCCC)c1ccnc2ccccc12`, the IFI was 4.59%.

`CCCN[P+](CC(C)C)(NCCC)NCCC` showed an IFI of 10.9%.

For `O=c1cccc2n1CC1CC2CN(Cc2cccc(O)c2)C1` (stereo unspecified), the IFI is 0%.

As for `O=C(Cn1c2ccccc2c(=O)c2ccccc21)Nc1ccc(Cl)cc1C(=O)c1ccccc1`, the IFI worked out at 6.02%.

Compound `CCN1CCN(Cc2cc(Cl)cc(Cl)c2O)CC1` returned an IFI of 0%.

The compound `O=C(CCl)Nc1ccc(Cl)cc1` showed an IFI of 3.54%.

For the compound `CCCC[C@@H](C)C(O)[C@H]1C(=O)N[C@@H](CC)C(=O)N(C)CC(=O)N(C)[C@@H](CC(C)C)C(=O)N[C@@H](C(C)C)C(=O)N(C)[C@@H](CC(C)C)C(=O)N[C@@H](C)C(=O)N[C@@H](C)C(=O)N(C)[C@@H](CC(C)C)C(=O)N(C)[C@@H](CC(C)C)C(=O)N(C)[C@@H](C(C)C)C(=O)N1C` (stereo partly specified), the IFI turned out to be 3.45%.

Consider `COc1cc2c(cc1O)CC[n+]1cc3c(OC)c(OC)ccc3cc1-2`, for which the IFI stood at 0%.

Compound `C=C[C@H]1CN2CC[C@H]1C[C@@H]2[C@@H](OC(C)=O)c1ccnc2ccccc12` returned an IFI of 1.83%.

On to `Cc1nc2ccccc2c(=O)n1-c1ccc([N+](=O)[O-])cc1`, for which the IFI worked out at 0%.

For the compound `OC1(c2ccc(Br)cc2)CCN(C2CCN(CCc3ccccc3)CC2)CC1`, the IFI amounted to 4.1%.

In turn, `CN(C)c1cc[n+](OC(=O)N2CCCCC2)cc1` registered an IFI of 0%.

As for `O=C1C(Nc2ccc(Cl)cc2)=C(N2CCCCC2)C(=O)c2ccccc21`, the IFI is 5.33%.

Regarding `CCOP(=O)(OCC)C(O)c1ccc(C)cc1` (stereo unspecified), the IFI came to 0%.

In turn, `C=C[C@H]1CN2CC[C@H]1C[C@H]2[C@H](OC(=O)c1cccc([N+](=O)[O-])c1)c1ccnc2ccccc12` yielded an IFI of 0.926%.

With `Cc1cc(N(C)C)cc(C)[n+]1OC(=O)N(c1ccccc1)c1ccccc1`, the IFI is 16.7%.

As for `COc1cc[n+](OC(=O)N2CCCCC2)c(C)c1`, the IFI was 0%.

In turn, `CC1=C[C@H]2O[C@@H]3C[C@H]4OC(=O)C=CC=C[C@H]([C@@H](C)O)OCC[C@@H](C)[C@H](O)C(=O)OC[C@@]2(CC1)[C@]4(C)[C@@]31CO1` gave an IFI of 24.5%.

These data come from ChEMBL document CHEMBL1156829.
